# From paper PMC5700166
# The entries are a selection whose mix differs from that of the whole data set. The list includes weakly bound sequences.
# How the values were obtained:
# Experiment in all cases: protein-binding microarray (PBM)
# Details in all cases: PBM: ~300 nM protein, 6 mM HEPES pH 7.8, 80 mM KCl, 0.5 mM EDTA, 0.5 mM EGTA, 6% glycerol, 35 ng/ul poly-dIdC, 1% milk, 1 h, room temperature; Ap Aiptasia and Nv Nematostella (sea anemones) / Co Capsaspora / Aq Amphimedon (sponge) / Dm Drosophila / Hu human; RHD is the Rel homology domain; high values mean tight binding; most listed sequences are background and not binding sites; double strand, one strand shown
# GST-Ap-NF-kB RHD = target: T1, GST-Ap-NF-kB RHD (UniProt A0A913YAJ5)
# T1 sequence: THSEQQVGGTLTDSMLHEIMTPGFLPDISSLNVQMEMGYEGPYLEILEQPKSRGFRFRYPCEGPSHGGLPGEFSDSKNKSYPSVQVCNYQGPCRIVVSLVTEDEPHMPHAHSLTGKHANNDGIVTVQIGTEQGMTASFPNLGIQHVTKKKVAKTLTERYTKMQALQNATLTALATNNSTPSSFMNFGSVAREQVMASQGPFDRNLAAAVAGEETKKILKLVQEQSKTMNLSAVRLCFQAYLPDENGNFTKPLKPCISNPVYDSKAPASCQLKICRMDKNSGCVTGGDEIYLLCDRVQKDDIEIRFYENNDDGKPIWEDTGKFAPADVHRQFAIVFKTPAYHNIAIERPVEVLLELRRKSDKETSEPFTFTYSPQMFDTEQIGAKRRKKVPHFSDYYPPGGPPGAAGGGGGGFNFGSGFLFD
# [1] = target: T2, GST-Nv-NF-kB (Cys allele) (UniProt E5G601)
# T2 sequence: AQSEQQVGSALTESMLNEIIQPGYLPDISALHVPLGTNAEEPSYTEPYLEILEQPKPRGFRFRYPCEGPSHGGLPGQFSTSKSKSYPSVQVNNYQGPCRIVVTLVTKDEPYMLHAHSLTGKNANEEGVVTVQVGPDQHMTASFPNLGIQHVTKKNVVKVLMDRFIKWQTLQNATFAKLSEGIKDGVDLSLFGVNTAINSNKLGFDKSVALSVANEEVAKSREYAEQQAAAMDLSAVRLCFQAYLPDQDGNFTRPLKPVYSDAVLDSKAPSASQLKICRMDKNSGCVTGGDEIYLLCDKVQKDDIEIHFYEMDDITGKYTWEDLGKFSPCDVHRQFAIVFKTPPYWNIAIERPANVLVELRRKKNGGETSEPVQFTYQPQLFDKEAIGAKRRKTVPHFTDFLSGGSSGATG
# GST-Co-NF-kB = target: T3, GST-Co-NF-kB (UniProt F1ARL5)
# T3 sequence: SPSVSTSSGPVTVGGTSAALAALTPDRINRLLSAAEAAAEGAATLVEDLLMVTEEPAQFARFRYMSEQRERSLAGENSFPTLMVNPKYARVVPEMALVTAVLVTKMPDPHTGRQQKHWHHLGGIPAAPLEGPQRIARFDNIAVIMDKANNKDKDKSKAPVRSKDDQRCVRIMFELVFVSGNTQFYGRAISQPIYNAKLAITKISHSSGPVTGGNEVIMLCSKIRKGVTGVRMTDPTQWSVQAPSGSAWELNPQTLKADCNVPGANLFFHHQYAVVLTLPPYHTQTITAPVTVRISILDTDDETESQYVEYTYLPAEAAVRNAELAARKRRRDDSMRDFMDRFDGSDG
# GST-Dm-Relish = target: T4, GST-Dm-Relish (UniProt Q94527)
# T4 sequence: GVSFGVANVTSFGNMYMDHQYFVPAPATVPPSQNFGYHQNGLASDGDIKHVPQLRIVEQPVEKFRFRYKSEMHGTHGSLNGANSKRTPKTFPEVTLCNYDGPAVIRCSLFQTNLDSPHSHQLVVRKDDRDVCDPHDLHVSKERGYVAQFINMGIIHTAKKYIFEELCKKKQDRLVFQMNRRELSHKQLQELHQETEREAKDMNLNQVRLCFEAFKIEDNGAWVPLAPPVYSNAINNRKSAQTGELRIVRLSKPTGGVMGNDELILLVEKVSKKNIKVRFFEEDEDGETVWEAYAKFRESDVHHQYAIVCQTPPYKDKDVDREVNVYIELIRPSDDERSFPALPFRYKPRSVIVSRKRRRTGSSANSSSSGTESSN
# GST-Aq-NF-kB = target: T5, GST-Aq-NF-kB (UniProt A9Y5G7)
# T5 sequence: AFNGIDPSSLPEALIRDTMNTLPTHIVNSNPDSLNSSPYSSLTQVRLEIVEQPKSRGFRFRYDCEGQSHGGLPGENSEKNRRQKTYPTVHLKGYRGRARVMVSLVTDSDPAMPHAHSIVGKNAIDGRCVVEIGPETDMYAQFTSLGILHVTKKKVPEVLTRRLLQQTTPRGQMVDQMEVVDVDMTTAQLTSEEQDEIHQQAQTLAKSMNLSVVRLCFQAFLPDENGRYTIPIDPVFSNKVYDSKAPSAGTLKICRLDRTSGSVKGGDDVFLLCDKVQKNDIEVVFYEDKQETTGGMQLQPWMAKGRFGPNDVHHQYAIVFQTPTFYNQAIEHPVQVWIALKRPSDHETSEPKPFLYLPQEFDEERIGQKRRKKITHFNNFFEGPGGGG
Sequence,binding signal (GST-Ap-NF-kB RHD) [z-score],binding signal [1] [z-score],binding signal (GST-Co-NF-kB) [z-score],binding signal (GST-Dm-Relish) [z-score],binding signal (GST-Aq-NF-kB) [z-score]
CCGATTAACATCAGATATAGTACTGATGTTAATCGGGTCTTGATTCGCTTGACGCTGCTG,-0.674,-0.683,-0.386,-0.336,-0.547
CCGATTAACATCACAGTGTCTTCTGATGTTAATCGGGTCTTGATTCGCTTGACGCTGCTG,-0.00472,-0.276,-0.693,-0.223,-0.487
CCGATTAACATCAAATTTCCAGATGATGTTAATCGGGTCTTGATTCGCTTGACGCTGCTG,0.0689,-0.31,-0.0373,0.276,0.633
CCGATTAACATCAACACGCGCGATGATGTTAATCGGGTCTTGATTCGCTTGACGCTGCTG,-0.15,-0.524,-0.326,-0.366,-0.249
CCGATTAACATCAGGTATTGTGCTGATGTTAATCGGGTCTTGATTCGCTTGACGCTGCTG,0.117,0.393,-0.0161,-0.0573,-0.0694
CCGATTAACATCAACTCTATAAGTGATGTTAATCGGGTCTTGATTCGCTTGACGCTGCTG,-0.673,-0.366,-0.536,-0.251,-0.576
CCGATTAACATCAAGCTAATCTGTGATGTTAATCGGGTCTTGATTCGCTTGACGCTGCTG,-0.905,-0.733,-0.652,-0.359,-0.513
CCGATTAACATCACGAGTCGAGATGATGTTAATCGGGTCTTGATTCGCTTGACGCTGCTG,-0.239,-0.25,-0.386,-0.562,-0.749
CCGATTAACATCAACCGTGGATATGATGTTAATCGGGTCTTGATTCGCTTGACGCTGCTG,-0.287,-0.41,0.397,-0.22,-0.291
CCGATTAACATCAGTGCGACGAGTGATGTTAATCGGGTCTTGATTCGCTTGACGCTGCTG,-0.0533,-0.592,-0.593,-0.512,-0.457
CCGATTAACATCATTCTCATAGATGATGTTAATCGGGTCTTGATTCGCTTGACGCTGCTG,-0.264,-0.677,0.0363,-0.326,-0.507
CCGATTAACATCAGCACCGTTGCTGATGTTAATCGGGTCTTGATTCGCTTGACGCTGCTG,-0.45,0.0142,-0.597,-0.621,0.0757
CCGATTAACATCAGATCACATGATGATGTTAATCGGGTCTTGATTCGCTTGACGCTGCTG,-0.649,-0.256,-0.129,-0.762,-0.446
CCGATTAACATCATCATCTCCATTGATGTTAATCGGGTCTTGATTCGCTTGACGCTGCTG,-0.0168,0.12,0.267,-0.945,-0.251
CCGATTAACATCAGGTTCATACCTGATGTTAATCGGGTCTTGATTCGCTTGACGCTGCTG,-0.998,0.458,-1.17,-0.197,0.259
CCGATTAACATCAACACCTGCCCTGATGTTAATCGGGTCTTGATTCGCTTGACGCTGCTG,0.667,-0.108,0.258,-0.227,0.12
CCGATTAACATCAGTCCAAGGCTTGATGTTAATCGGGTCTTGATTCGCTTGACGCTGCTG,-0.754,-1.18,-1.53,-1.21,-0.487
CCGATTAACATCAAGTTTCGTCGTGATGTTAATCGGGTCTTGATTCGCTTGACGCTGCTG,-0.622,0.205,0.219,-0.221,-0.621
CCGATTAACATCAAGCAGGATATTGATGTTAATCGGGTCTTGATTCGCTTGACGCTGCTG,0.303,0.0565,0.0759,-0.783,-0.308
CCGATTAACATCACTCATATGCTTGATGTTAATCGGGTCTTGATTCGCTTGACGCTGCTG,-0.402,-0.00753,-0.627,-0.642,-0.507
CCGATTAACATCAAACAATTCGATGATGTTAATCGGGTCTTGATTCGCTTGACGCTGCTG,-0.353,-0.471,-0.416,-0.397,-0.248
CCGATTAACATCACATATCAATGTGATGTTAATCGGGTCTTGATTCGCTTGACGCTGCTG,-1.59,-0.634,-0.875,-0.0626,-0.424
CCGATTAACATCAAGCTCTAAGGTGATGTTAATCGGGTCTTGATTCGCTTGACGCTGCTG,0.38,0.305,0.358,0.313,0.437
CCGATTAACATCAGGAAGTTTTATGATGTTAATCGGGTCTTGATTCGCTTGACGCTGCTG,-0.552,0.14,-0.249,0.764,0.799
CCGATTAACATCACGTGGATTCCTGATGTTAATCGGGTCTTGATTCGCTTGACGCTGCTG,-0.3,-0.498,0.374,1.66,0.488
CCGATTAACATCACGAGAGAGGATGATGTTAATCGGGTCTTGATTCGCTTGACGCTGCTG,0.457,0.208,0.114,-0.144,-0.419
CCGATTAACATCAGATGGATCGATGATGTTAATCGGGTCTTGATTCGCTTGACGCTGCTG,-0.59,-0.408,-0.576,-1.05,-0.57
CCGATTAACATCATGATATGCTTTGATGTTAATCGGGTCTTGATTCGCTTGACGCTGCTG,-0.961,0.25,0.337,-0.363,-0.42
